Test results reported in ChEMBL document CHEMBL4888484, “Replenishing the malaria drug discovery pipeline: Screening and hit evaluation of the MMV Hit Generation Library 1 (HGL1) against asexual blood stage Plasmodium falciparum ,using a nano luciferase reporter read-out” (2022).
The whole screen tested about 150,000 compounds, of which about 540 (0.36%) showed an effect of 50% or more. The list shows a part of the results.

Tested on: Plasmodium falciparum
Experiment: Primary screen in NF54 nanoGlo assay, in single point, at 2uM, 72h; a lower Z score goes with more inhibition
Format: functional, Erythrocyte
Conditions: timepoint 72 hour

Compound	% Inhibition [%]	Z score
CC1CC1c1ccc(CN(C)C(=O)c2ccc(-c3ccccc3F)o2)o1 (stereo not given)	-4	0.46
CC(CC(O)c1ccco1)NC(=O)NCC1CCOC1C(C)(C)C (stereo not given)	-5	0.63
Cc1cc(C(=O)N2CCC[C@H](CCc3ccc(F)c(F)c3)C2)nc(C)n1	3	-0.48
CC(=O)NCC(=O)NCCCCN(OCc1ccccc1)C(=O)OC(C)(C)C	-9	1.34
Cc1cc(C(=O)N2CCOCC2)c2cc(C(C)C)ccc2n1	-7	1.36
Cc1nc2c(C(=O)NCc3ccccc3Cl)cnn2c(O)c1Cl	-13	1.72
N=C1C(c2nc3ccccc3s2)=C(O)CN1c1cc(F)c(F)c(F)c1	-11	1.46
CCc1cc(NCc2cc3n(n2)CCCN(CC(C)C)C3)nc(C)n1	4	-0.55
Fc1ccccc1CN1CCCC12CCN(c1ccc3ncccc3c1)CC2	-15	1.87
COCc1nc(C)cc(N(C)Cc2c[nH]nc2C)n1	-6	0.82
Cc1nc(C)c(C(=O)N(C)[C@@H]2CCC[C@H]2O)s1	1	-0.16
COCc1nn(C)cc1C(=O)NCCc1cnc2ccccc2c1	0	0.02
Cc1nnc(N2CC3(CCOCC3)[C@@H]2C2CC2)nc1C	-5	0.8
Cc1cccc2cc3c(nc12)N(S(=O)(=O)c1ccc(C(C)C)cc1)CC3	-1	0.08
Cc1[nH]c(=O)[nH]c(=O)c1Cc1ncnn1Cc1ccc2c(c1)OCO2	10	-1.43
COc1ccc(-c2onc(C)c2C(=O)NCCc2ccc(OC)nc2)cc1	-5	0.51
C[C@@H](CCc1ccccc1F)NCc1ncnn1C	-10	1.16
CCc1cc2n(CCN3CCOCC3)c3ccccc3n2n1	-18	2.35
CCN1CCC(N(C)C(=O)C2CC3CCCCC3N2S(=O)(=O)c2ccc(OC)c(OC)c2)CC1 (stereo not given)	4	-0.57
O=C(NC1CCC(O)CC1)N1CCC[C@@H]1Cc1cccc2ccccc12 (stereo not given in full)	-37	4.35
Cc1cc([C@H](C)NC2CCN(Cc3ccccc3)CC2)no1	-10	1.87
CCOc1cccc(NC(=O)N2Cc3ccccc3NC(=O)[C@@H]2C)c1	-5	0.81

Compound	% Inhibition [%]	Z score
CN(CC(=O)N1CCCC[C@@]12CCCOC2)S(C)(=O)=O	-10	1.94
CCc1ccc(C2=CCN(C(=O)N[C@H]3CCC(=O)N(C)C3)CC2)cc1	-14	1.39
CC(C)(C)C1CCC(NC(=O)c2cncn2-c2ccc(-c3ccc(F)c(F)c3)cc2)CC1 (stereo not given)	-6	0.84
O=C(N[C@H]1CCCC[C@@H]1F)c1ccncc1	38	-3.81
O=C1CC(C2CCCCN2Cc2ccsc2)CN1 (stereo not given)	-9	1.18
Cn1cc(C(=O)C(=O)NCC2(c3ccccc3)CC2)cn1	-12	1.51
CCCc1nc(C)cc(N[C@H]2CCN(CC(=O)N(C)C)C[C@@H]2O)n1	15	-1.98
COCCNC(=O)[C@H]1C[C@H](Oc2ccccc2)CN1CC1CC1	-5	0.94
CC(=O)c1sc(Nc2cccnc2)nc1C	0	0.04
CN1CCCN(C(=O)c2ccc3c(c2)n(CC2CC2)c(=O)n3C2CCCCC2)CC1	2	-0.39
Cc1ccc(-c2ccc(CCC(=O)N3CC(C)OC(C)C3)n2-c2ccc(CC#N)cc2)c(C)c1 (stereo not given)	-15	1.56
O=C1NCCN(C(=O)NCc2csc3c2CCCC3)[C@H]1c1cccc(F)c1	-6	1.17
Cc1cccc(NC(=O)N(C)CCc2noc(C(=O)NCc3ccc4c(c3)OCO4)n2)c1	-24	2.2
c1cn(CCc2cn[nH]c2)c(-c2ccc3nonc3c2)n1	9	-1.22
O=S1(=O)CCC(Cc2nc(COc3ccccc3)nn2CCO)CC1	-2	0.21
CN(C)C(=O)[C@@H]1CN(c2nccnc2C#N)CCO1	7	-0.94
Cc1nc(-c2c(C)noc2C)sc1C(=O)N1CC2(CCC2)c2ccccc21	-7	1.07
CC(OC(=O)C1Cc2cc(Cl)ccc2O1)C(=O)Nc1ccc(S(N)(=O)=O)cc1 (stereo not given)	2	-0.26
N[C@H]1CCc2cc(C(=O)NCC3(c4ccccc4)CC3)ccc2NC1=O	-11	1.75
O=C(NCCc1ccco1)c1ccc2c(c1)nc1n2CCCC1	-18	2.5
O=C(NCCc1c[nH]cn1)[C@@H]1C[C@H]2C(=O)NCCCCCCN(S(=O)(=O)c3ccc4c(c3)CCC4)[C@H]2C1	-20	2.61
CCOC1CN(C(=O)Cc2c(CC)nn(C)c2CC)C1	-12	1.26

Compound	% Inhibition [%]	Z score
C[C@H]1CN(C(=O)NCc2ccncc2OCC(F)(F)F)CCCO1	-2	0.32
CCOc1ccccc1NC(=O)c1cc2n(n1)[C@H](C(F)(F)F)C[C@H](c1ccco1)N2	-4	0.83
C[C@H](O)c1cc2n(n1)CCN(C1CCN(C(=O)c3ccccc3)CC1)C2	-3	0.41
CC(C)c1c(C(=O)N2CCN(c3ccccc3)CC2)cnn1-c1nccc(-c2ccco2)n1	8	-1.15
CC(=O)NC1(c2noc(CCn3cc(C)cn3)n2)CCCCCC1	-8	0.89
COc1ccc2c(c1)C=C(CN1CCCn3nc([C@H](C)O)cc3C1)CO2	4	-0.47
O=C(N1CCC(O)CC1)C(F)(F)Cl	33	-0.97
CC(=O)CCC(=O)N1CCOCC1C1CCCCC1O (stereo not given)	-2	0.32
OCCC[C@H]1CCCN(c2nc3nonc3nc2NC2CC2)C1	10	-1.3
CCc1cc(N2CCO[C@H](c3nc(C)cs3)C2)nc(CC)n1	-16	1.79
CC(C)C[C@H]1COCCN1Cc1ccc(C#CCO)s1	0	-0.02
C[C@H]1C(=O)N(c2ccccc2)CCN1c1nc(N)nc2[nH]ncc12	-7	1.24
CC1CCN(c2nccnc2Oc2ccc(C(=O)NCc3ccco3)cc2)CC1	-1	0.13
O=C(c1ccc2ncsc2c1)N1CCc2sccc2[C@H]1c1ccccc1	-8	0.93
Cc1cccnc1CN(C)C(=O)CC[C@H](C)N1CCOCC1	-8	1.08
Cc1ccncc1CC(=O)Nc1cc(Cl)c(OCC(F)(F)F)c(Cl)c1	-14	2.26
O=C(c1ccco1)N1CCC(n2cc(-c3nc(C4CC4)no3)nn2)CC1	-14	2.47
CC1CN2CCCC2CN1S(=O)(=O)CCC1CCOCC1 (stereo not given)	-8	1.19
O=C1N[C@H]2CC[C@@H]1CN(C(=O)c1ccc(-c3cc(O)c(F)c(F)c3)cc1)C2	-14	1.77
NC(=O)C1=NO[C@@H](CNC(=O)NCCOc2ccc3c(c2)OCO3)C1	26	-2.95
COc1cccc(C(=O)N2CCC(CN3C[C@@H](C(=O)NCC4CC4)CC3=O)CC2)c1OC	-3	0.39
CCc1nn(C)c(CC)c1CN1CC(=O)N[C@@H](C)C1	1	-0.13

Compound	% Inhibition [%]	Z score
O=C(CCS(=O)(=O)c1ccc(Cl)cc1)Nc1nnc(-c2ccccc2Cl)o1	-13	2.1
Cc1cc(-c2ccc(-c3cnc(N)[nH]3)cc2)ccn1	-1	0.12
CN1C(=O)c2ccc(NC(=O)c3ccnn3-c3ccccc3)cc2C1=O	-2	0.22
COc1ccc(CN2CCN(Cc3cnc(C)s3)C[C@@H]2CCO)c(F)c1	-7	0.92
COc1ccccc1[C@@H]1CCCN1c1cccc(C(=O)O)n1	-14	3.03
Cc1nnc(N(C)Cc2ccoc2C)c(C#N)c1C	-10	1.58
O=c1c2c(Cl)cccc2ncn1[C@H]1CCOC1	-2	0.22
CCC(CC)CN(CCC#N)c1ncccn1	-17	2.51
Cc1ccc2c(c1)NC(=O)c1cc(S(=O)(=O)N3CCC(C)CC3)c(N3CCCC3)cc1O2	-14	1.99
Cc1c(CN2CCC[C@H](N(C)CCc3ccccn3)C2)[nH]c2c(C)cccc12	-1	0.18
C[C@H](c1ccccc1)N(CC(N)=O)C(=O)c1cn2c(n1)CCC2	2	-0.24
C[C@H](NCc1nnc(C2CC2)s1)c1c(F)cccc1Cl	-20	2
Cc1nc(NC(=O)COC[C@H]2CCCO2)sc1Br	-3	0.38
Cc1nn(C)c2nc(N(C)[C@H]3CCN(C)C3)sc12	-3	0.62
O=C(CS(=O)(=O)Cc1cc(Cl)cc2c1OCOC2)N1CCC1	-15	1.42
CCc1nnc(CNc2nc(C)nc3onc(C)c23)s1	5	-1.04
Cc1cc(CNCCCN2CCN(C)CC2)ccc1Br	10	-1
COc1cc(N[C@H]2CC(C)(C)Cc3nc(N4CCC(O)CC4)ncc32)ncn1	12	-1.68
COC(=O)CN(C)C(=O)CCN(C)Cc1ccc(Cl)cc1	-13	1.64
